Results published in PMC4336329 (PLoS ONE, 2015).
Hit rate of the full screen: of about 310,000 compounds, about 14,000 (4.5%) showed an effect of 50% or more. Effects have a minus sign here. This is one part of the list.

Target: human ether-à-go-go-related gene (hERG) potassium channel (human, UniProt Q12809)
Assay: primary screen, population patch clamp on CHO cells stably expressing hERG
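Further: peak tail current of the secondary pulse compared with the same well before compound.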

human ether-à-go-go-related gene (hERG) potassium channel, sequence (Q12809 whole entry, looked up): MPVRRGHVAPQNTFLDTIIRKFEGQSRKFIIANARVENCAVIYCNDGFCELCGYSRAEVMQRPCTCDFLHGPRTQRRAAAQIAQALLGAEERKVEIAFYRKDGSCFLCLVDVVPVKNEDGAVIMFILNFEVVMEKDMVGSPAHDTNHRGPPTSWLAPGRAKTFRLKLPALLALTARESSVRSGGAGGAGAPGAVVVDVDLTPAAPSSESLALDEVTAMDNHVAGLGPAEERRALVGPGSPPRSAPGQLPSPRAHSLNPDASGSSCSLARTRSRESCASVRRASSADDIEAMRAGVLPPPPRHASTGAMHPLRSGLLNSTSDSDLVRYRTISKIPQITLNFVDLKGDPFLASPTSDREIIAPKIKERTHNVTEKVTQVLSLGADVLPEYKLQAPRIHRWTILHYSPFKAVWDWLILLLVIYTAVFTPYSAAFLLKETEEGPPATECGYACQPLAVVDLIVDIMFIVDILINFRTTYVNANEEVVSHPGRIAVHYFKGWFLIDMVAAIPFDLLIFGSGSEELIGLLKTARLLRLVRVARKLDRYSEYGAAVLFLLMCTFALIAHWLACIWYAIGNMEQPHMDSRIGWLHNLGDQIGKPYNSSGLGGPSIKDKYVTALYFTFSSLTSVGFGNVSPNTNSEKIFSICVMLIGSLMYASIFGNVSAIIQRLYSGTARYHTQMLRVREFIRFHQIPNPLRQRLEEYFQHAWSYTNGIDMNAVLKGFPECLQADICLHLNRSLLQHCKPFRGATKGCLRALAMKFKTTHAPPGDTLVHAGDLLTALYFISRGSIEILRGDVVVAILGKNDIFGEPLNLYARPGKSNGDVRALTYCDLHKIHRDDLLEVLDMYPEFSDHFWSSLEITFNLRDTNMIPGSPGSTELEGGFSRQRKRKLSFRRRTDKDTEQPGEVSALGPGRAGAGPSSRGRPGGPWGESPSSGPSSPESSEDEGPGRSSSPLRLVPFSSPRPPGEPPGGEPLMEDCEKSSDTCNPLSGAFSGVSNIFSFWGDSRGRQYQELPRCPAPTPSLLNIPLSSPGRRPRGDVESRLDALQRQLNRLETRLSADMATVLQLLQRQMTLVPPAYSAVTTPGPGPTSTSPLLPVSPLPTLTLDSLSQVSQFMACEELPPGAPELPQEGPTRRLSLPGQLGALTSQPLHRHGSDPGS

Compound | hERG current change (%, negative = inhibition) at 10uM [%]
CN(C)c1ccc(-c2ccc3c(=O)c4ccccc4n(C)c3c2)cn1 | -8.37
Cc1c2cnn(-c3ccccc3)c(=O)c2c(C)n1CCCC(=O)N1CCN(C)CC1 | -18.1
CCC1(c2ccc(F)cc2)NC(=O)N(CC(=O)N2CCOCC2)C1=O (centres unmarked) | 2.31
CCN(CC)CCNC(=O)CS(=O)Cc1nc(-c2ccccc2Cl)oc1C (centres unmarked) | -11
O=C(NCC1CCCN(C2Cc3ccccc3C2)C1)c1cccs1 (centres unmarked) | -40.7
O=C(c1cccc(S(=O)(=O)N2CCN(c3ccccc3)CC2)c1)N1CCN(c2ccccc2O)CC1 | -8.86
O=C(Nc1cccc([N+](=O)[O-])c1)Nc1cccc([N+](=O)[O-])c1 | 13.1
CCc1ccc(NC(=O)NNC(=O)c2ccc3ccccc3c2O)cc1 | 15.9
O=C(Nc1cc(Cl)ccc1N1CCOCC1)C1=COCCO1 | -5.55
COc1ccc(-n2c(=O)c(CCC(=O)N(C)Cc3cccs3)nc3ccccc32)cc1 | -38.7
COc1cc(NC(=O)c2cc(-n3cnnc3)ccc2Cl)cc(OC)c1 | -3.44
CCc1ccc(NC(=O)CSc2nc(=O)n(CCCN3CCOCC3)c3c2CCCC3)cc1 | -54.7
O=C(CCCSc1nnc(SCCCC(=O)c2ccc(F)cc2)s1)c1ccc(F)cc1 | 17.8
O=C(NCc1ccccc1)C1=C[C@H](c2csc3ccccc23)C[C@H](OCCCCO)O1 | -12.5
CC1(C)OC(=O)N(Cc2ccco2)C1(C)O (centres unmarked) | 14.4
Cc1cccc(C(=O)OCC(=O)N2CCCCCC2)c1 | 7.77
COCCNC(=O)c1ccc2c(c1)S(=O)(=O)c1ccccc1C2=O | 0.495
N#C/C(=C\c1c(Cl)cccc1Cl)c1nc2ccccc2[nH]1 | 9.08
O=S(=O)(c1cccc(-c2csc(-c3ccccc3)n2)c1)N1CCOCC1 | -33.6
O=C(NC1(c2ccccc2)CC1)C1CCC(=O)N(Cc2ccc(Cl)cc2)C1 (centres unmarked) | -24.1
O=C(Nc1ccccc1Cc1ccccc1)c1ccccc1F | -4.48
CCCc1c(O)nc(SCC(=O)O)[nH]c1=O | 67.7

Compound | hERG current change (%, negative = inhibition) at 10uM [%]
O=C1CCCCC1S(=O)(=O)c1ccccc1 (centres unmarked) | -6.31
CCOC(=O)c1nn(-c2ccc(OC)cc2)c(=O)c2c(N)scc12 | 0.386
Cc1ccc2nc(=O)c(NNc3ccccc3)cnc2c1 | 15.6
Cc1ccccc1CN(C)C(=O)c1ccc2ccccc2n1 | 0.112
Cc1ccc(S(=O)(=O)N2CCN(S(=O)(=O)N3CCCCC3)CC2)c(C)c1 | -6.97
Cc1cc(NC(=O)CSCC(=O)Nc2cc(Cl)ccc2N2CCN(C)CC2)no1 | -25.7
CCOC(=O)N1CCN(C(=O)CSCc2ccccc2)CC1 | 16.6
COc1ccc(/C=C/C(=O)NCCCN2CCCCCC2)cc1 | -58.3
N#C/C(=C\c1ccc(N2CCCCC2)c([N+](=O)[O-])c1)c1nn(-c2ccccc2)c(N)c1C#N | 12.1
Cc1ccc(Nc2[nH]c(=O)c3ccccc3c2C(=O)c2ccccc2)cc1 | 13
O=S(=O)(c1ccc(Cl)c(C(F)(F)F)c1)N1CCN(c2ccccn2)CC1 | -5.59
CCN(CC)S(=O)(=O)c1ccc(NC(=O)c2ccc(NS(C)(=O)=O)cc2)cc1 | 0.441
COc1ccc(C(=O)Nc2nc3cc4c(cc3s2)OCO4)c(OC)c1 | 6.04
CCN(CC)c1ccc(-c2c(C#N)c(N)nc(OC)c2C#N)cc1 | 0.548
CSc1cccc(NC(=O)COC(=O)C2CCN(S(=O)(=O)c3ccccc3)CC2)c1 | 4.09
CCCC(=O)Nc1c2c(nn1-c1ccc(C)cc1)CS(=O)(=O)C2 | 3.46
Cc1cc(N2CCOCC2)nc2ccc(NC(=O)C3CCC(C)CC3)cc12 (centres unmarked) | -27.8
CCOC(=O)c1c(C)[nH]c(C)c1C(=O)CSc1nc(N)cc(=O)[nH]1 | 0.173
Cn1c(=O)c2c(-c3ccccc3)n(-c3ccccc3O)cc2n(C)c1=O | 1.25
CCN1CCN(Cc2ccc(NC(=O)c3ccc(C)c(NC(=O)c4ccc5n[nH]nc5c4)c3)cc2C(F)(F)F)CC1 | -1.8
COC(=O)c1ccc(-n2c(C)ccc2-c2ccccc2)cc1 | 2.49
COc1cc(OC)cc(C(=O)NNC(=O)c2ccc(S(=O)(=O)N3CC(C)OC(C)C3)cc2)c1 (centres unmarked) | 12.6
